Source: PubChem BioAssay (NCATS)
“And” between values parts separate entries of the source, which are not always exact repeats. Equal values may be shown once. Inconclusive results, whose numbers are uncertain, are shown with a selection of clear calls. Potencies of inconclusive entries are doubtful fits and often do not repeat. More than one record can exist for a structure, and the calls need not agree. The source made the active and inactive calls. The call rests on the fitted dose curve; in most records, active means well fitted curve in the direction sought with a large enough effect; inconclusive means small, poorly fitted or top-dose-only effect, or another doubt; inactive means no such curve, though single readings can be large; an effect the other way counts as inactive or inconclusive.

How the values were obtained:
[1] = system: HEK293; test: Cytotoxic Profiling of Annotated Libraries Using Quantitative High-Throughput Screening (AID 1296008); conditions: Five cell lines viability, CellTiter-Glo ATP luminescence, 48-72 h; max response: stronger effect = lower value; further: nearly all actives have a fitted effect of over 60% in size
In short: (§1)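 Compounds were pin-transferred onto cells and incubated 48 or 72 hr at 37 degree Celsius, 95% humidity. CellTiter-Glo was added, plates sat 10 min at room temperature, then ATP-coupled luminescence was imaged as the viability read-out.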

[2] = system: HaCat; test: as above; conditions: Five cell lines viability, CellTiter-Glo ATP luminescence, 48-72 h; max response: stronger effect = lower value
In short: as §1

[3] = system: KB-3-1; test: as above; conditions: Five cell lines viability, CellTiter-Glo ATP luminescence, 48-72 h; max response: stronger effect = lower value
In short: as §1

[4] = system: NIH3T3; test: as above; conditions: Five cell lines viability, CellTiter-Glo ATP luminescence, 48-72 h; max response: stronger effect = lower value
In short: as §1

[5] = system: MKL-2; test: qHTS assay to identify novel small-molecules to repurpose for Merkel cell carcinoma treatment (AID 1296009); conditions: MCC and control cell lines, CellTiter-Glo viability, 72 h; activity change, negative = cytotoxicity: at 46 µM (top of the series); further: nearly all actives have a fitted effect of over 60% in size
In short: (§2)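 Cells exposed to NPC (8-point) and MIPE (11-point) compound dilutions for 72 hr at 37 degree celsius; viability read by CellTiter-Glo luminescence, normalized to no-cell and DMSO in-plate controls.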

[6] = system: UISO; test: as above; conditions: MCC and control cell lines, CellTiter-Glo viability, 72 h; series mostly up to 46 µM
In short: as §2

[7] = system: CASKI; test: Primary qHTS to identify gynecologic anti-cancer compounds using libraries of approved drugs and bioactive compounds (AID 1345084); conditions: Gynecologic cancer cell panel viability, ATPlite luminescence, 48 h; series mostly up to 57.5 µM; further: nearly all actives have a fitted effect of over 55% in size
In short: (§3)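 ATP-based viability (ATPlite), 1,000 cells/well, 16 h pre-incubation, 48 h compound at 37 C, 5% CO2, 15 min RT before read.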

[8] = system: Hek293T; test: as above; conditions: Gynecologic cancer cell panel viability, ATPlite luminescence, 48 h, control line for the selectivity index; series mostly up to 57.5 µM
In short: as §3

[9] = system: JEG-3; test: as above; conditions: Gynecologic cancer cell panel viability, ATPlite luminescence, 48 h; series mostly up to 57.5 µM
In short: as §3

[10] = system: OV90; test: as above; conditions: Gynecologic cancer cell panel viability, ATPlite luminescence, 48 h; series mostly up to 57.5 µM
In short: as §3

[11] = system: PA-1; test: as above; conditions: Gynecologic cancer cell panel viability, ATPlite luminescence, 48 h; series mostly up to 57.5 µM
In short: as §3

[12] = system: SKOV3; test: as above; conditions: Gynecologic cancer cell panel viability, ATPlite luminescence, 48 h; series mostly up to 57.5 µM
In short: as §3

[13] = system: MCC-13; test: qHTS assay to identify novel small-molecules to repurpose for Merkel cell carcinoma treatment (AID 1296009); conditions: MCC and control cell lines, CellTiter-Glo viability, 72 h; series mostly up to 46 µM; further: nearly all actives have a fitted effect of over 60% in size
In short: as §2

[14] = system: MCC-26; test: as above; conditions: MCC and control cell lines, CellTiter-Glo viability, 72 h; activity change, negative = cytotoxicity: at 46 µM (top of the series)
In short: as §2

[15] = system: MKL-1; test: as above; conditions: MCC and control cell lines, CellTiter-Glo viability, 72 h; series mostly up to 46 µM
In short: as §2

[16] = system: WaGa; test: as above; conditions: MCC and control cell lines, CellTiter-Glo viability, 72 h; series mostly up to 46 µM
In short: as §2

[17] = system: CAOV3; test: Primary qHTS to identify gynecologic anti-cancer compounds using libraries of approved drugs and bioactive compounds (AID 1345084); conditions: Gynecologic cancer cell panel viability, ATPlite luminescence, 48 h; series mostly up to 57.5 µM; further: nearly all actives have a fitted effect of over 55% in size
In short: as §3

[18] = system: Es-2; test: as above; conditions: Gynecologic cancer cell panel viability, ATPlite luminescence, 48 h; series mostly up to 57.5 µM
In short: as §3

[19] = system: HeLa; test: as above; conditions: Gynecologic cancer cell panel viability, ATPlite luminescence, 48 h; series mostly up to 57.5 µM
In short: as §3

[20] = system: C33A; test: as above; conditions: Gynecologic cancer cell panel viability, ATPlite luminescence, 48 h; series mostly up to 57.5 µM
In short: as §3
On the % scale 0 is the no-effect control and ±100 the full control effect; potency means the concentration at half of the fitted maximal effect; tags describe the fitted curve by direction and shape.

## Cc1cccc(Nc2nc(-c3ccncc3)cs2)c1
[1]
  Potency: inconclusive: 37.2 µM [inhibitor, single point] and inconclusive: 29.1 µM [inhibitor, single point]
[2]
  Potency: inconclusive: 18.4 µM [inhibitor, single point]
[3]
  Potency: inconclusive: 26.4 µM [inhibitor, single point] and inconclusive: 20.6 µM [inhibitor, single point]
[4]
  Potency: active: 11.8 µM and active: 7.31 µM
[5]
  Potency: inactive
[6]
  Potency: active: 0.935 µM
[7]
  Potency: inconclusive: 28.2 µM [cytotoxic, single point]
[8]
  Potency: inconclusive: 22.4 µM [cytotoxic, single point]
[9]
  Potency: inconclusive: 28.2 µM [cytotoxic, single point]
[10]
  Potency: inconclusive: 39.8 µM [cytotoxic, single point]
[11]
  Potency: inconclusive: 14.1 µM [cytotoxic, single point]
[12]
  Potency: inconclusive: 39.8 µM [cytotoxic, single point]

## O=C(N[C@@H](c1ccccc1)[C@@H]1CCCCN1)c1cccc(C(F)(F)F)c1Cl
[1]
  Potency: inconclusive: 33.2 µM [inhibitor, single point]

## Cc1cc2c(s1)Nc1ccccc1N=C2N1CCN(C)CC1
[1]
  Potency: inconclusive: 26.6 µM [inhibitor, single point]
[2]
  Potency: inconclusive: 16.8 µM [inhibitor, single point]
[3]
  max response: inactive: 7.18% and inactive: 6.8%
  outcome: inactive
[5]
  Potency: inconclusive: 33.5 µM [inhibitor, single point]

## COC(=O)Nc1ccc(-c2nc(N3CCOCC3)c3cnn(C4CCN(C(=O)OC)CC4)c3n2)cc1
[1]
  Potency: active: 1.66 µM
[2]
  Potency: inconclusive: 10.5 µM [inhibitor, full curve]
[3]
  Potency: active: 1.48 µM
[13]
  Potency: inconclusive: 4.18 µM [inhibitor, partial curve]
[14]
  Potency: inconclusive: 8.33 µM [inhibitor, partial curve]
[15]
  Potency: inconclusive: 6.62 µM [inhibitor, full curve]
[5]
  Potency: inconclusive: 5.9 µM [inhibitor, partial curve, poor fit]
[16]
  Potency: active: 6.62 µM

## CCCCCCCCOc1ccccc1C(=O)Nc1ccc(C(=O)OCC[N+](C)(CC)CC)cc1
[1]
  Potency: inconclusive: 20.9 µM [inhibitor, partial curve]
[2]
  Potency: inconclusive: 18.8 µM [inhibitor, single point]
[3]
  Potency: inconclusive: 33.2 µM [inhibitor, single point]
[13]
  Potency: inconclusive: 23.7 µM [inhibitor, single point]
[14]
  Potency: inconclusive: 23.7 µM [inhibitor, single point]
[15]
  Potency: inconclusive: 23.5 µM [inhibitor, partial curve] and inconclusive: 26.6 µM [inhibitor, single point]
[6]
  Potency: inconclusive: 16.6 µM [inhibitor, partial curve]
[16]
  Potency: active: 29.9 µM
[17]
  Potency: inconclusive: 39.8 µM [cytotoxic, single point]
[7]
  Potency: inconclusive: 28.2 µM [cytotoxic, single point]
[11]
  Potency: inconclusive: 39.8 µM [cytotoxic, single point]
[12]
  Potency: inconclusive: 25.1 µM [cytotoxic, single point]

## O=C(C=CC=Cc1ccc2c(c1)OCO2)N1CCCCC1
[1]
  Potency: inconclusive: 37.2 µM [inhibitor, partial curve, poor fit]

## NC(=O)c1ccc(-c2nc(-c3ccc4c(c3)OCCO4)c(-c3ccccn3)[nH]2)cc1
[1]
  Potency: inconclusive: 37.2 µM [inhibitor, single point]
[2]
  max response: inactive: -0.259%
[3]
  Potency: inconclusive: 33.2 µM [inhibitor, partial curve, poor fit]

## CC(C)C(=O)Nc1ncc(-c2cc(C(F)F)nn2-c2c(Cl)cccc2Cl)s1
[1]
  Potency: inconclusive: 33.2 µM [inhibitor, single point] and inconclusive: 29.1 µM [inhibitor, single point]
[2]
  Potency: inconclusive: 5.8 µM [inhibitor, partial curve, poor fit]
[3]
  Potency: inconclusive: 29.6 µM [inhibitor, single point] and inconclusive: 20.6 µM [inhibitor, single point]
[4]
  Potency: inconclusive: 37.2 µM [inhibitor, single point]
[14]
  Potency: inconclusive: 26.4 µM [inhibitor, single point]
[18]
  Potency: inactive
[19]
  Potency: inconclusive: 39.8 µM [cytotoxic, single point]
[11]
  Potency: inconclusive: 1.41 µM [cytotoxic, full curve, poor fit]

## Cc1cc(C=c2sc3nc4ccccc4n3c2=O)c(C)n1-c1ccccc1
[1]
  max response: inactive: -0.0904%

## O=c1cc(N2CCOCC2)oc2c(-c3ccccc3)cccc12
[1]
  Potency: inconclusive: 11.8 µM [inhibitor, partial curve]
[2]
  Potency: inconclusive: 16.6 µM [inhibitor, partial curve, poor fit]
[3]
  Potency: inconclusive: 18.7 µM [inhibitor, partial curve]
[4]
  Potency: inconclusive: 1.32 µM [inhibitor, full curve]

## CN1CCC[C@@H]1Cc1c[nH]c2ccc(CCS(=O)(=O)c3ccccc3)cc12
[1]
  max response: inactive: -1.58%
  outcome: inactive
[20]
  Potency: inactive
[10]
  Potency: inactive and inconclusive: 3.98 µM [cytotoxic, full curve]

## Cc1cc(O)c2c(c1)C(=O)c1cc(O)cc(O)c1C2=O
[1]
  Potency: inconclusive: 37.2 µM [inhibitor, single point]

## C=CC(=O)Nc1cccc(Sc2nc(Nc3ccc(N4CCN(C)CC4)cc3)ncc2Cl)c1
[1]
  Potency: inconclusive: 37.2 µM [inhibitor, single point] and inconclusive: 18.4 µM [inhibitor, single point]
[2]
  Potency: inconclusive: 7.43 µM [inhibitor, partial curve, poor fit] and active: 5.8 µM
[3]
  Potency: inconclusive: 33.2 µM [inhibitor, single point] and inconclusive: 23.1 µM [inhibitor, single point]
[4]
  Potency: inconclusive: 20.6 µM [inhibitor, single point]
[13]
  Potency: inconclusive: 26.4 µM [inhibitor, single point]
[5]
  Potency: inconclusive: 5.26 µM [inhibitor, partial curve, poor fit]
[20]
  Potency: inconclusive: 31.6 µM [cytotoxic, partial curve, poor fit]
[17]
  Potency: inconclusive: 28.2 µM [cytotoxic, single point]
[7]
  Potency: inconclusive: 28.2 µM [cytotoxic, partial curve, poor fit]
[19]
  Potency: inconclusive: 14.1 µM [cytotoxic, partial curve]
[8]
  Potency: inconclusive: 35.5 µM [cytotoxic, single point]
[11]
  Potency: inconclusive: 28.2 µM [cytotoxic, single point]

## CN(Cc1cc(Br)cc(Br)c1N)C1CCCCC1
[1]
  Potency: inconclusive: 23.7 µM [inhibitor, single point]

## OC[C@H]1O[C@H](O[C@]2(CCl)O[C@H](CCl)[C@@H](O)[C@@H]2O)[C@H](O)[C@@H](O)[C@H]1Cl
[1]
  max response: inactive: -9.55%
  outcome: inactive
[6]
  Potency: inactive
[16]
  Potency: inactive
[17]
  Potency: inactive

## O=C(Nc1cc2cc[nH]c2cn1)c1ccccc1
[1]
  Potency: inconclusive: 26.4 µM [inhibitor, single point] and inconclusive: 18.4 µM [inhibitor, single point]
[2]
  Potency: inconclusive: 20.6 µM [inhibitor, single point]
[3]
  Potency: inconclusive: 16.6 µM [inhibitor, partial curve] and inconclusive: 14.6 µM [inhibitor, partial curve]
[13]
  Potency: inconclusive: 29.6 µM [inhibitor, single point]
[14]
  Potency: inconclusive: 33.2 µM [inhibitor, single point]
[15]
  Potency: active: 14.8 µM
[5]
  Potency: inconclusive: 18.7 µM [inhibitor, partial curve, poor fit]
[16]
  Potency: inconclusive: 18.7 µM [inhibitor, partial curve]
[17]
  Potency: active: 1.78 µM
[7]
  Potency: active: 1.78 µM
[18]
  Potency: active: 1.58 µM
[8]
  Potency: active: 2.24 µM
[9]
  Potency: active: 1.12 µM
[10]
  Potency: active: 0.891 µM
[12]
  Potency: active: 2 µM

## CCN(CC)CCCC(C)Nc1c2ccc(Cl)cc2nc2ccc(OC)cc12 (stereo not given)
[1]
  Potency: active: 7.5 µM and active: 3.17 µM
[2]
  Potency: inconclusive: 33.5 µM [inhibitor, single point]
[3]
  Potency: inconclusive: 10 µM [inhibitor, single point]
[4]
  Potency: inconclusive: 29.9 µM [inhibitor, single point] and inconclusive: 14.2 µM [inhibitor, single point]
[13]
  Potency: active: 23.7 µM
[5]
  Potency: active: 3.35 µM
[6]
  Potency: inconclusive: 23.7 µM [inhibitor, single point]
[16]
  Potency: active: 26.6 µM
[20]
  Potency: active: 12.6 µM
[17]
  Potency: active: 3.98 µM and inconclusive: 20 µM [cytotoxic, single point]
[7]
  Potency: inconclusive: 39.8 µM [cytotoxic, single point] and inconclusive: 17.8 µM [cytotoxic, single point]
[18]
  Potency: inconclusive: 14.1 µM [cytotoxic, single point]
[8]
  Potency: inconclusive: 39.8 µM [cytotoxic, partial curve, poor fit] and inconclusive: 17.8 µM [cytotoxic, single point]
[9]
  Potency: inconclusive: 31.6 µM [cytotoxic, single point] and inconclusive: 11.2 µM [cytotoxic, single point]
[10]
  Potency: active: 8.91 µM and inconclusive: 5.62 µM [cytotoxic, partial curve, poor fit]
[11]
  Potency: inconclusive: 25.1 µM [cytotoxic, single point] and inconclusive: 11.2 µM [cytotoxic, single point]
[12]
  Potency: inconclusive: 17.8 µM [cytotoxic, partial curve, poor fit] and inconclusive: 17.8 µM [cytotoxic, single point]
